# Measurements from PubChem BioAssay (NCATS).
# This is one part of the list. Shown are side measurements of this screen, not its main read-out; they come without a call. Compounds called inactive in the main read-out are mostly missing here. Words in brackets tell the shape of the fitted curve; partial curves, single points and poor fits give uncertain potencies.
# Assay: qHTS Assay for Lipid Storage Modulators (AID 1519)
# Details: Drosophila S3 cells, BODIPY lipid droplet/cell ratio, laser cytometry; measured here: cell number channel AC50; cells loaded with oleic acid
# In short: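 Cells seeded at 5,000 per well were treated with compounds over a concentration series and loaded with oleic acid (400 uM, as added). Lipid droplet fluorescence (488 nm excitation, 500-530 nm channel) was read by laser-scanning cytometry and normalized to 20 uM Triacsin C.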
# Tags give direction and shape of the fitted curve.
row,Compound,AC50
1,Cc1cc(C)c(S(=O)(=O)Nc2ccccc2C(F)(F)F)c(C)c1,"22400 nM [rising, partial curve, poor fit]"
2,COc1ccccc1-c1cncnc1NCc1cccs1,"25.1 nM [rising, full curve, poor fit]"
3,COc1ccccc1-c1nc(N(C)Cc2ccco2)c2ccccc2n1,"501 nM [rising, full curve, poor fit]"
4,COc1ccc(CNc2ncnc3ccc(-c4ccccc4OC)cc23)c(OC)c1,"7080 nM [rising, single point]"
5,COc1cc2cc3c4c(cc(OC)c(OC)c4c2cc1OC)CCN3C,"501 nM [rising, full curve]"
6,COc1ccccc1CNc1nc(-c2ccc(C(=O)N(C)C)cc2)nc2ccccc12,"5.62 nM [rising, full curve, poor fit]"
7,COc1cccc(Cn2c(=O)c(C)nc3cnc(OCc4ccccc4)nc32)c1,"1120 nM [rising, partial curve, poor fit]"
8,COc1ccccc1CNc1ncnc2ccc(-c3ccc4c(c3)OCO4)cc12,"63.1 nM [rising, full curve, poor fit]"
9,COc1ccccc1N1CCN(C[C@@H](O)COc2cccc3ccccc23)CC1,"14100 nM [rising, partial curve]"
10,Cc1noc(C)c1C(=O)N1CCC2(CCCN(c3ncccn3)C2)CC1,"28.2 nM [rising, full curve, poor fit]"
11,COc1ccccc1-c1nc(NCc2ccccc2)c2ccccc2n1,"39800 nM [falling, single point]"
12,CC(C)C[C@@H](NC(=O)OCC1c2ccccc2-c2ccccc21)C(=O)O,"14100 nM [rising, partial curve, poor fit]"
13,O=c1cc(-c2ccccc2)oc2c1ccc1ccccc12,"224 nM [rising, full curve, poor fit]"
14,COc1cccc(-c2ccc3ncnc(NCc4cccnc4)c3c2)c1,"6310 nM [rising, single point]"
15,Nc1cc(=O)[nH]c(N)n1,"2820 nM [falling, full curve, poor fit]"
16,Cc1ccc(S(=O)(=O)/C=C\C#N)cc1,"8910 nM [falling, full curve, poor fit]"
17,COc1cccc(-c2ccc3ncnc(Nc4ccccc4)c3c2)c1,"316 nM [rising, full curve]"
18,Cc1c(-c2ccccc2)oc2cc(O)ccc2c1=O,"15800 nM [rising, partial curve, poor fit]"
19,COc1cccc(Cn2c(=O)c(-c3ccccc3)nc3cnc(OC)nc32)c1,"562 nM [rising, full curve]"
20,Clc1ccccc1CNCC1CCC(CNCc2ccccc2Cl)CC1 (stereo not given),"35500 nM [rising, partial curve, poor fit]"

row,Compound,AC50
1,Cc1ccccc1-c1nc(N(C)Cc2ccco2)c2ccccc2n1,"1260 nM [rising, full curve]"
2,CNCC[C@@H](Oc1ccccc1C)c1ccccc1,"8910 nM [rising, full curve]"
3,COc1cccc(OC)c1OCCNC[C@@H]1COc2ccccc2O1,"14100 nM [rising, partial curve, poor fit]"
4,Cn1cccc1C(=O)N1CCC2(CCCN(c3ccccn3)C2)CC1,"891 nM [rising, full curve]"
5,COc1ccc(CNc2ncncc2-c2ccccc2OC)c(OC)c1,"2510 nM [rising, single point]"
6,CN(Cc1ccco1)c1ncnc2ccc(-c3ccccc3Cl)cc12,"891 nM [rising, full curve]"
7,COc1c(-c2ccccc2)oc2c(ccc3occc32)c1=O,"398 nM [rising, full curve, poor fit]"
8,Cc1c(Cl)cccc1Nc1ccccc1C(=O)O,"22400 nM [rising, partial curve, poor fit]"
9,COc1ccccc1-c1cc(=O)c2cc(O)ccc2o1,"2510 nM [rising, full curve]"
10,CCCCCCCNS(=O)(=O)c1cccc2c(Cl)cccc12,"12600 nM [rising, full curve, poor fit]"
11,CCOC(=O)C1=C[C@@]2(CC)CCCN3CCc4c(n1c1ccccc41)[C@H]32,"35500 nM [rising, single point]"
12,COc1ccccc1CNc1ccnc(-c2ccccc2CN(C)C)n1,"2820 nM [rising, partial curve]"
13,COc1ccc(CNc2ncncc2-c2ccc3c(c2)OCO3)c(OC)c1,"562 nM [rising, partial curve]"
14,Cc1cccc(Nc2cc(Cl)nc(SCC(=O)O)n2)c1C,"6310 nM [rising, full curve, poor fit]"
15,Cn1cccc1C(=O)N1CCC2(CCCN(C(=O)Nc3cccc(C#N)c3)C2)CC1,"355 nM [rising, partial curve, poor fit]"
16,COc1ccccc1CNc1nc(-c2cccc(NS(C)(=O)=O)c2)nc2ccccc12,"794 nM [rising, full curve]"
17,Cc1cccc(CNc2ccnc(-c3ccccc3C(F)(F)F)n2)c1,"4470 nM [rising, full curve, poor fit]"
18,CS(=O)(=O)c1ccc(-c2cc(Br)sc2-c2ccc(F)cc2)cc1,"4470 nM [rising, full curve]"
19,O=C(O)CC/C=C\C[C@@H]1CO[C@H](c2ccccc2Cl)O[C@@H]1c1ccccc1O,"25100 nM [rising, partial curve, poor fit]"
20,COc1cccc(Cn2c(=O)c(CCc3ccccc3)nc3cnc(OC)nc32)c1,"22.4 nM [rising, full curve, poor fit]"
